According to the supplement of paper PMC3334620:
Over roughly 33,000 sequences, “E-score (-0.5 to 0.5)” has its median near -0.021; the highest 2% begin near 0.32. This is one part of the list.

target: T1, Zap1 (UniProt P47043); experiment: PBM E-score (8-mer binding enrichment) (E-score (-0.5 to 0.5)); higher = stronger / more preferred TF binding; most listed sequences are background and not binding sites; settings: protein concentration: 200 nM; construct: GST-full length
T1 sequence: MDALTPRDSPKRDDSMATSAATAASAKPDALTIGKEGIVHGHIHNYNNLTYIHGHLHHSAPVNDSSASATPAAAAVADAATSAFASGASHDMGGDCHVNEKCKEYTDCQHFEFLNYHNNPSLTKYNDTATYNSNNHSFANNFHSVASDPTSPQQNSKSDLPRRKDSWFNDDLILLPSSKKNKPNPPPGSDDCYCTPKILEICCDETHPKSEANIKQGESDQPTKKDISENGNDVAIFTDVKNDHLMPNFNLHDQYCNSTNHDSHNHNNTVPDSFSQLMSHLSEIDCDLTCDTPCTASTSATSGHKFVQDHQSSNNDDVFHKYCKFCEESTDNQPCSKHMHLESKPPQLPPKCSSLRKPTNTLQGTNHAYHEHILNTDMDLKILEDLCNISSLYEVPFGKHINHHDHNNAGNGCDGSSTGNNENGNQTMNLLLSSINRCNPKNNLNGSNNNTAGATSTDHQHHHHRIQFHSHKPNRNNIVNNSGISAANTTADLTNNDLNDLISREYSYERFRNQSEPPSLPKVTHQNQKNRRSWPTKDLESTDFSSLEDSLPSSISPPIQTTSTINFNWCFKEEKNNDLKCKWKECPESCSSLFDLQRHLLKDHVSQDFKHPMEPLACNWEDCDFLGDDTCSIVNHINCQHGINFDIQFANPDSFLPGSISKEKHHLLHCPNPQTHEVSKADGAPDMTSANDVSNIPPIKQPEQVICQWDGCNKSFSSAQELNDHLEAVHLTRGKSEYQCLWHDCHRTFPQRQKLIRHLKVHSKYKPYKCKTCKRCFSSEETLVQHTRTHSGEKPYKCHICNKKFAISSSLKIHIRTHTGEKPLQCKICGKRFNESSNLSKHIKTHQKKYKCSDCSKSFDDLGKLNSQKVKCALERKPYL
Method in brief: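 The E-score, a modified Wilcoxon-Mann-Whitney statistic, was computed by the Universal PBM Analysis Suite for every ungapped eight-base word pooled with its reverse complement. Scans behind it were normalised with masliner after bound GST-tagged yeast transcription factors were detected with fluorescent anti-GST. The proteins, at about 100-200 nM, had been applied to universal all-10-mer Agilent arrays made double-stranded by primer extension.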

Sequence	PBM E-score
ACAGAGAA	-0.0562
CTAGGTGC	-0.243
GTAAGTCA	-0.113
ACTGGCGG	-0.0316
CGAAAAAG	0.18
ACGCCCGA	-0.136
ACTTCCCA	0.00014
CCTGTAAG	0.0782
AAAATTTA	0.115
GCATCAAC	-0.082
AAAGAAGG	0.0804
AGCATTTG	-0.00877
ATAATGTC	-0.102
GCGAAAGC	-0.142
AGTACAGG	0.0139
CGGCTGGC	-0.196
CCGTAACA	0.0988
ATGCACAT	-0.0287
ACTTCCAA	0.0299
ATGTAAGA	0.0542
ATTTGTCA	-0.0752
ACACGACG	-0.132
AATCAAGT	0.0375
ACTAGAAT	0.0418
AACTATGT	-0.277

Sequence	PBM E-score
ACCAGGGA	-0.00163
CCGGGGAG	0.0491
ACCACCTG	0.167
GCAGTCAC	-0.0144
GTGACTCA	-0.103
ACGCGCAA	0.154
CAAACCGC	0.0621
GATAAAGA	-0.19
ACAGATTG	-0.157
CGATGCCA	-0.148
CACTCATA	0.00233
AATTGTTG	-0.00694
AAGGGCTC	-0.328
AATTTGGA	0.0369
CAAAGTAA	-0.00107
ACTTCAAA	-0.13
ACCCTTCG	0.373
ACCAATGC	0.0242
CCATCCGG	-0.0653
CGATATAA	0.0368
CCGGAAAA	0.214
AGAATTGG	-0.137
GTAGGCAC	-0.108
CTACACAG	-0.119
CAAGTCGG	-0.11

Sequence	PBM E-score
AACGATTC	-0.191
ACTTTCGG	-0.0108
ACGAACTA	0.099
CTCTTCAA	-0.24
GATTTTCC	0.00079
AAACTGAC	0.0458
TCGGTCCA	0.0624
ATGGCGAC	-0.107
GTACTGTA	0.0704
ACTAATAG	0.117
AAGCTCCG	-0.0961
AGCGAAGA	-0.0845
AAACACAG	0.0983
TCGTCAAA	0.0196
CCCGTTAC	0.141
CTACGGTA	0.0997
CGGGGTGC	-0.0417
CCTGCTTA	0.0283
GAGATGTA	-0.00504
CTGCTGTA	-0.0799
GAAGAAGA	-0.0985
AAACTGCT	-0.173
ATCCCCTC	-0.167
CGTACGAA	0.0481
AACTGCCT	-0.187

Sequence	PBM E-score
CTTGTTAA	0.102
AAACTGTC	-0.156
ACTAGTCA	-0.235
CTCGCATA	-0.0255
AAGGGTTG	0.441
AAATATCA	0.0502
GTGCCAAA	-0.173
CCCGATAC	0.209
CTACGAAC	0.0136
CCGGCCCA	-0.106
AAGTTACC	0.265
ATACAGAT	0.102
TCTGAACA	0.0463
ATGGTCTA	-0.0631
CCAATAGG	0.166
CTATTAGA	-0.0606
GAAACGTC	-0.299
AGAGTGAT	-0.0301
CTTTAACA	0.123
GTTAATTA	0.212
CTACTTTC	0.043
ATGTTCTC	-0.0467
ACGGTTCT	0.0709
ATGTCAGC	-0.201
AGCCGGGA	-0.0342

Sequence	PBM E-score
CGCGGCGA	0.0759
AACGGACG	-0.214
ATACCCTC	0.323
CCGCATTA	-0.0192
TCCACTCA	0.0775
CTTTGTGC	-0.0318
ATCGAGTA	-0.0105
AGTTATGA	0.169
GTTGAGGA	0.042
CGGTCGAC	-0.00696
GTGTGCGA	-0.192
AAAATAAA	0.239
ATTCAAAA	0.173
CGGTTGTA	0.153
TGATGCCA	-0.288
CGGCGAAC	-0.274
GCCCTGAA	0.0835
TGAACTCA	-0.0396
CCTAAAGC	-0.135
AATCGCTA	-0.00711
ACCCAACG	0.182
ATCCATAC	-0.0583
GGGAGTAC	-0.159
GGGTAGAA	0.163
ATGAAATA	0.0599

Sequence	PBM E-score
CTTCAACC	0.134
GCAGGCCC	-0.249
CCCATTCC	-0.136
ATATGGAC	0.148
AAACTCCC	-0.136
AAGATTAG	-0.0895
GATGTCCC	-0.095
ATTTTCGA	0.123
GTGGTCTA	0.0864
GCCTTAGC	-0.182
AACTAGAA	0.164
GTCAGGAC	0.00801
CCTAACCC	0.264
ACGATGCT	-0.134
AGCGCCCG	-0.405
ACACCGTC	-0.106
CACGGCCC	0.034
CTTGGGAA	-0.0342
CTAGTAGA	-0.0109
AATAGAAC	0.151
CAGTTGAC	-0.0373
CCGCGCCA	0.0566
GCGTTGAA	-0.0131
GCCCGGTA	-0.121
GGTTTCAA	0.198

Sequence	PBM E-score
GTCGATCA	-0.05
ACTTTCTC	-0.174
CGTAAATA	0.0482
ATTTTCCG	0.168
AATCTTGA	-0.0452
ATTCGTTA	0.0931
AATGCATG	0.0817
CGGACTGC	-0.168
ATTGAGCG	0.00268
ACCCATAA	0.251
AGGCATGG	-0.0823
GCTGCCCC	-0.16
CAGTTAAC	0.07
GCCCCCTA	-0.276
AGATCGAG	-0.0707
CGCCCGCA	-0.122
CACGCTAA	-0.0641
GGAAGTCA	-0.137
AGCATGCC	-0.317
AGTGCCTG	-0.154
GGGGTCAA	0.266
AAACGAGA	-0.0218
AATGCTTA	-0.00701
CGAATCTA	-0.0931
GATCCCCA	0.0296

Sequence	PBM E-score
CCCTGTTC	-0.109
TGGCAGAA	-0.0806
CAACTGGG	-0.165
ATCTCGCG	0.114
GAGCACAC	-0.0945
GTTGCATA	0.0598
CTTCCAAG	-0.0666
ATCTACTA	0.186
AGTCTCAG	-0.196
ATGTTAAC	0.137
AAGCCATG	-0.153
ACTGTTTA	0.0575
CACTCAGG	0.156
AACCCACC	0.343
AACATAAG	0.136
AGCAGCTA	-0.148
GACACCGA	0.0147
CCAATCGA	-0.00131
GATACTTA	0.0258
CCTGGCTC	-0.13
ACGTCTAG	-0.0284
GCCTAGGC	-0.0827
AGTGACCG	0.115
ACTCACGG	0.0383
ACCGTGGA	0.0209

Sequence	PBM E-score
CAGTAAGA	0.0404
CCGACGAA	-0.0653
AGTGGTGC	0.00684
ACCCCCTG	-0.07
AGGTGAGC	-0.167
GCCTGACC	0.0483
GTCAACCA	-0.0132
ATGACGAC	0.0124
ACTAAACA	0.138
AACCAACA	0.254
ATCATCCC	0.0399
CGTTTATC	0.0679
CGTCATTA	-0.145
ATAGTGGG	-0.0397
ACCACGCG	0.23
CGCGTGGA	-0.119
GTTAGGGA	0.0101
CGTGGCAG	-0.184
CACGTTCG	-0.38
